The campaign covered roughly 48,000 compounds. About 120 (0.25%) were called active. Roughly 4% stayed inconclusive and do not appear here. The call rests on the fitted dose curve; in most records, active means well fitted activation curve with a large enough effect; inconclusive means small, poorly fitted or top-dose-only effect, or another doubt; inactive means no such curve, though single readings can be large or run the other way. The list shows a part of the results.

The assay in a line: Primary qHTS for Identification of Small Molecule Activators of Huntingtin-Antisense Promoter Activity. Further: nearly all actives have a fitted effect of over 55% in size. The following applies: HEK293 HTT-AS promoter firefly luciferase reporter, 24 h; series mostly up to 57.5 µM; activity change, positive = activation: at the top concentration. An outline of the steps:
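HEK293 luciferase promoter-reporter cells (2,500/well) plated 24 h, then compounds added at up to 57.5 uM final for 24 h at 37 °C. Firefly luminescence by Dual-Glo, normalized to vehicle (0%) and zero RLU (-100%).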
A general note: Quantitative high-throughput screening tests each substance at several concentrations.
For `O=C(CSc1nc(-c2ccccc2)[nH]c1-c1ccccc1)Nc1ccc2c(c1)OCCO2`, the “activity change, positive = activation” value was inactive: -3.7%.
The same measure for `Cc1ccc(Nc2cc(C)c(C#N)c3nc4ccccc4n23)cc1Cl`: inactive: 15.1% [at 11.5 µM, percent change from vehicle, -100% = no light]; for `CC(C)c1cc(-c2nc(-c3ccccc3)no2)n[nH]1`: inactive: 19.5%.
In the case of `CN(CC(=O)Nc1ccccc1Cl)S(=O)(=O)c1ccc(C(=O)N2CCOCC2)s1` it was inactive: -4.24%; in that of `COc1ccc(S(=O)(=O)N2CCN(Cc3ccc4c(c3)OCO4)CC2)cc1OC`, inactive: -27.5%; in that of `COc1ccc(-c2nc(CN3CCC(C(=O)NCc4ccccc4)CC3)c(C)o2)cc1OC`, inactive: -3.36%.
Consider `Cn1nnc2c(N3CCN(c4ccccc4Cl)CC3)ncnc21`, for which the “activity change, positive = activation” value was inactive: 12%.
In the case of `CC(C)(C)c1ccc(-c2nc(SCCCOc3ccccc3)n3[nH]c(=O)cc3n2)cc1`, the “activity change, positive = activation” value is inactive: -26.8%.
In the case of `COc1ccc(-c2c3c(=O)n(C)c(=O)n(C)c3c3c(C)nc4ccccc4n23)cc1` it was inactive: -13.8%.
The same measure for `CCOC(=O)Cn1c(=O)n(-c2ccccc2OC)c2nc(-c3cccc(F)c3)nc(C(N)=O)c21`: inactive: -28.2%; for `Cc1ccc(-c2nnc(SCc3cccc(C#N)c3)o2)cc1`: inactive: 1.25%.
In the case of `CCOC(=O)c1ccccc1NC(=O)N(C(C)C)C1CCN(C(C)=O)CC1` it was inactive: -5.33%; in that of `CCOC(=O)c1cccnc1SCC(=O)Nc1ccc(C)cc1C`, inactive: 0.617%.
For the molecule `CCCCc1ccc(NC(=O)c2ccc(=O)n(Cc3cccc(C)c3)c2)cc1`, the “activity change, positive = activation” value is inactive: -37.7%.
In the case of `Cc1ccc2c(c1)-c1c(cnc3cc(-c4ccccc4)nn13)CO2` it was inactive: 14.3%; in that of `O=C(NCCc1ccccc1)c1nnc(Cc2cccc(F)c2)o1`, inactive: -21.5%.
The same measure for `COc1ccc(-c2nc(C)c(CCNS(=O)(=O)c3cc(C)c(C)cc3C)s2)cc1`: inactive: -32.5%.
Consider `CN(C)CCNC(=O)c1ccc2c(=O)n3c(nc2c1)CCCCC3`, for which the “activity change, positive = activation” value was inactive: -5.95%.
Regarding `COc1cccc(N2CCN(C(=O)CCc3c(C)nc4c(c3C)c(=O)n(C)c(=O)n4C)CC2)c1`, the “activity change, positive = activation” value is inactive: -12.2%.
The same measure for `Cc1ccccc1-n1c(SCc2ccc(Cl)cc2)nc2[nH]ncc2c1=O`: inactive: -33.6%; for `CCC(C)NC(=O)c1ccc2c(c1)N(Cc1ccccc1)C(=O)c1ccccc1S2` (configuration not stated): inactive: -32.3%; for `CCOc1ccc(CNC(=O)C2CCCN(S(=O)(=O)c3ccc4c(ccn4C)c3)C2)cc1` (configuration not stated): inactive: -34.5%.
On to `CCN(CC)c1cc2c(cc1F)c(=O)c(S(=O)(=O)c1ccc(OC)cc1)cn2CC`, for which the “activity change, positive = activation” value is inactive: -16.9%.
`COc1ccc(-c2nc(CSc3nncn4c3cc3sccc34)c(C)o2)cc1OC`: the “activity change, positive = activation” value was inactive: -7.11%.
In the case of `O=C(CN1C(=O)CCc2cc(S(=O)(=O)N3CCOCC3)ccc21)NCc1ccccc1` it was inactive: -5.75%.
The same measure for `CCNc1nc(OC)nc(Oc2ccc(=O)[nH]n2)n1`: inactive: -8.49%; for `CC(C)(C)c1ccc(S(=O)(=O)N2CCN(Cc3noc(CCC(=O)N4CCCCC4)n3)CC2)cc1`: inactive: -35.8%.
In the case of `CN1[C@@H]2CC[C@H]1CC(OC(=O)C(O)c1ccccc1)C2` (some centres not stated) it was inactive: -4.01%.
With `Cc1cc(C)cc(S(=O)(=O)c2cn(C)c3cc(N4CCCC4)c(F)cc3c2=O)c1`, the “activity change, positive = activation” value is inactive: -16.3%.
In the case of `CCc1ccc(NC(=O)CSC2=Nc3ccccc3C3=NC(CCC(=O)NCc4ccco4)C(=O)N23)cc1` (configuration not stated) it was inactive: -1.84%; in that of `CCc1ccccc1NC(=O)N(C)CCc1c(C)nn(C)c1C`, inactive: -6.57%; in that of `Cc1ccc(-c2nc3sc(CCNC(=O)c4ccc(C)c(C)c4)c(C)n3n2)cc1`, inactive: 6.93%.
On to `O=C(CCS(=O)(=O)c1cccs1)Nc1ccc(C(=O)Nc2ccccc2F)cc1`, for which the “activity change, positive = activation” value was inactive: 1.99%.
Regarding `CCSc1ncc(Cl)c(C(=O)Nc2ccc(S(=O)(=O)N3CCCCC3)cc2)n1`, the “activity change, positive = activation” value was inactive: -20.3%.
The same measure for `Cc1ccc(C)c(Cn2cc(S(=O)(=O)c3ccc(Cl)cc3)c(=O)c3cc(F)ccc32)c1`: inactive: 4.56%.
In the case of `CCN(Cc1ccccc1)C(=O)CN(c1ccc(OC)cc1)S(=O)(=O)c1c(C)nn(C)c1C` it was inactive: -10.3%.
In the case of `CCCCN(CCCC)CCNC(=O)c1cn(CC)c2ccc(S(=O)(=O)N(C)C3CCCCC3)cc2c1=O` it was inactive: -2.39%; in that of `COc1ccc(Cl)cc1NS(=O)(=O)c1ccc2c(c1)NC(=O)CC(=O)N2`, inactive: -2.21%.
Regarding `CCOc1ccc(NC(=O)Cn2c(=O)n(-c3cccc(OC)c3)c(=O)c3c4c(sc32)CCCC4)cc1`, the “activity change, positive = activation” value is inactive: -4%.
Regarding `COC(=O)N[C@H](C(=O)N1CCC[C@@H]1c1ncc(-c2ccc(-c3ccc(-c4cnc([C@@H]5CCCN5C(=O)[C@@H](NC(=O)OC)C(C)C)[nH]4)cc3)cc2)[nH]1)C(C)C`, the “activity change, positive = activation” value was inactive: -17.3%.
The same measure for `Cc1ccc(-c2c(C)n3c4c(=O)n(C)c(=O)n(C)c4nc3n2CCO)cc1`: inactive: -42.7%; for `CC(=O)N1CCc2c(sc3c2c(=O)n(CCc2ccccc2)c(=O)n3Cc2ccc(Cl)cc2)C1`: inactive: -35.5%.
The same measure for `Cc1cc2c(cc1S(=O)(=O)N1CCCCC1)OCC(=O)N2`: inactive: -21.4%.
Turning to `Cc1ccccc1NC(=O)CSc1nc2c(c(=O)n(C)c(=O)n2C)n1Cc1ccccc1F`, the “activity change, positive = activation” value is inactive: 3.81%.
In the case of `COCCNC(=O)Cn1c(=O)n(CCCCCC(=O)NCc2ccc3c(c2)OCO3)c(=O)c2sccc21` it was inactive: -13.4%.
As to `CCOC(=O)C1CCCN(C(=O)c2cc3c(=O)[nH]c4ccc(C)cc4c3s2)C1` (configuration not stated), the “activity change, positive = activation” value was inactive: -17.4%.
In the case of `CN(Cc1ccccc1)S(=O)(=O)c1cc(Br)cc2c1N(C(=O)C1CC1)CC2` it was inactive: -26.6%; in that of `CCN(CCCNC(=O)CN1N=C(c2ccc(OC)cc2)CCC1=O)c1cccc(C)c1`, inactive: -39.2%; in that of `CCCCN(C)CCCNC(=O)c1cc(-c2ccc(Br)s2)nc2ccccc12`, inactive: -19.6%.
As to `Cc1cccc(NC(=O)CCCCCn2c(=O)[nH]c3ccsc3c2=O)c1`, the “activity change, positive = activation” value was inactive: -17.9%.
The same measure for `CCOc1ccc(CCNC(=O)CCCn2nc(C)c3sc4ccccc4c3c2=O)cc1`: inactive: -10.3%; for `COc1cccc(Nc2sc(C(=O)c3ccc(F)cc3)c(N)c2C(=O)NCc2ccc(Cl)cc2)c1`: inactive: -15.5%; for `Cc1cccc(N2CCN(C(=O)c3cn(CC(C)C)c(=O)c4c3c3ccccc3n4C)CC2)c1C`: inactive: -32.9%.
Turning to `COc1cc2nccc(Oc3ccc(NC(=O)NC4CC4)c(Cl)c3)c2cc1C(N)=O`, the “activity change, positive = activation” value is inactive: -22.4%.
The same measure for `COc1cccc(N2CC(NC(=O)CCCc3ccccc3)CC2=O)c1` (configuration not stated): inactive: -5.77%; for `Cc1ccc(NS(=O)(=O)c2c(C)[nH]c(=O)[nH]c2=O)c(C)c1`: inactive: -6.7%; for `COc1ccc(-c2ccc(NS(=O)(=O)c3ccc(C(C)=O)cc3)cc2)nn1`: inactive: -23.6%.
Turning to `Cc1ccc(-c2noc(CNC(=O)c3ccc(Br)o3)n2)cc1`, the “activity change, positive = activation” value is inactive: -20.4%.
In the case of `COc1ccc(NC(=O)CC2C(=O)N(c3cccc(C)c3)C(=O)N2C2CCCCC2)cc1` (configuration not stated) it was inactive: -0.106%.
As for `CC(=O)c1cccc(NC(=O)c2cc(-c3ccc(Cl)s3)nc3ccccc23)c1`, the “activity change, positive = activation” value is inactive: -18.9%.
The same measure for `COc1ccc(-c2nnc(SCC(=O)Nc3ccc(C(C)C)cc3)nc2-c2ccc(OC)c(OC)c2)cc1OC`: inactive: -23.6%; for `CCC(C)(Oc1ccc(C2(c3ccc(OC(C)(CC)C(=O)O)cc3)CCCCC2)cc1)C(=O)O` (configuration not stated): inactive: 6.27%.
The same measure for `CC(C)c1ccc(S(=O)(=O)c2nnn3c2nc(N2CCCCC2)c2sccc23)cc1`: inactive: -8.56%; for `COc1cccc(C(=O)Nc2ccc(-c3cc(C(F)(F)F)nn3-c3ccccc3)cc2)c1`: inactive: -50.2%; for `Cc1ccc(C)c(CN2C(=O)N(c3cc(Cl)ccc3C)S(=O)(=O)c3ccccc32)c1`: inactive: -17.4%.
For `Cc1ccc(C)c(Cn2c(-c3cccs3)nc3ccccc32)c1`, the “activity change, positive = activation” value was inactive: -41.3%.
In the case of `CCOc1ccccc1CNS(=O)(=O)c1ccc2[nH]c(=O)ccc2c1` it was inactive: -21%; in that of `CC(C)Cc1ccc(S(=O)(=O)Nc2cc3c(cc2N2CCOCC2)n(C)c(=O)c(=O)n3C)cc1`, inactive: -19.3%.
The same measure for `CCc1nn(CC(=O)NCCCN(CC(C)C)CC(C)C)c(=O)c2cc3sc(C)cc3n12`: inactive: -1.41%.
In the case of `COc1ccccc1N1CCN(C(=O)Cn2cnc3onc(-c4ccc(F)cc4)c3c2=O)CC1` it was inactive: -18.6%.
`O=C(c1ccc2c(=O)n(CCc3ccccc3)c(=O)[nH]c2c1)N1CCN(c2ccc(F)cc2)CC1`: the “activity change, positive = activation” value was inactive: -45.6%.
In the case of `Cc1nn(-c2ccccc2)c2c1N(CC(=O)N1CCN(c3cccc(Cl)c3)CC1)C(=O)CS2` it was inactive: -6.56%; in that of `COc1ccc(Cn2c(=O)c3oc4ccccc4c3n(Cc3cccc(C(F)(F)F)c3)c2=O)cc1`, inactive: -30.8%; in that of `COc1cccc(N2CC(NC(=O)c3ccco3)CC2=O)c1` (configuration not stated), inactive: -11.8%.
In the case of `CCCCCCOc1ccc(C2C(=O)N(C3CCCCC3)CC(=O)N2CCC)cc1` (configuration not stated) it was inactive: -25.2%; in that of `CCOc1ccccc1CNC(=O)C1CCN(c2nn3cc(-c4ccc(F)cc4)nc3s2)CC1`, inactive: 7.44%.
The same measure for `Cc1cccc(N2CCN(C(=O)c3cccc(-n4c(C)nc5cccnc54)c3)CC2)c1C`: inactive: -31.6%; for `CC(C)c1ccc(CN(Cc2ccco2)c2cnc(S(C)(=O)=O)nc2C(=O)Nc2ccc(F)cc2)cc1`: inactive: -20.8%; for `Cc1ccc(C(=O)Nc2cc3nn(-c4ccccc4)nc3cc2Cl)c(C)c1`: inactive: -3.33%.
For the molecule `CCOc1ccccc1N(CC(=O)NCCSc1ccccc1)S(=O)(=O)c1ccccc1`, the “activity change, positive = activation” value was inactive: -31.7%.
In the case of `N#C/C(=C\c1ccc(Cl)cc1Cl)c1nc(-c2cccc(Cl)c2)cs1` it was inactive: 0.66%; in that of `COc1ccccc1Cc1nc2ccccc2nc1SCC(=O)N(C)c1ccc(F)cc1`, inactive: -15.3%; in that of `Cc1nnc(N2CCC(C(=O)NCCc3ccccc3Cl)CC2)c2nn(-c3ccccc3)c(C)c12`, inactive: -36.6%.
In the case of `Cc1cccc(N2CCN(C(=O)Nc3cn(CC(C)C)c(=O)c4ccccc34)CC2)c1C` it was inactive: -9.59%; in that of `Cc1ccc(-c2noc(C(C)NS(=O)(=O)c3ccc(C)cc3)n2)cc1` (configuration not stated), inactive: 1.53%; in that of `COc1ccc(CNC(=O)Cc2c(C)c3cc4c(C)coc4c(C)c3oc2=O)cc1`, inactive: -2.2%.
The same measure for `O=C(Nc1cccc(Cl)c1)c1cnc2sc(N3CCCC3)nn2c1=O`: inactive: -42.9%.
For the molecule `CN1C(=O)Cc2cc(S(=O)(=O)N3CCN(c4ccccc4F)CC3)ccc21`, the “activity change, positive = activation” value was inactive: -22.8%.
In the case of `Cc1ccc(C)c(CN2CCCN(Cc3ccc(F)cc3)S2(=O)=O)c1` it was inactive: -31.4%; in that of `Cc1nc(-n2nc(C)c(Cc3ccccc3Cl)c2C)sc1C(=O)Nc1ccccc1F`, inactive: -1.01%.
In the case of `CCOC(=O)Cn1c(=O)n(CC2CCCO2)c2nc(-c3ccc(C)cc3)nc(C(N)=O)c21` (configuration not stated) it was inactive: -8.72%; in that of `CC(=O)c1ccc(S(=O)(=O)N2CCn3cccc3C2c2ccc(C)cc2)cc1` (configuration not stated), inactive: -27.9%.

Source of the values: PubChem BioAssay AID1508624 (National Center for Advancing Translational Sciences (NCATS), 2021).
